The other results are listed elsewhere or left out. One pool of 16,384 single-stranded DNAs met each Rep nickase domain in vitro at 3 µM enzyme and 37 °C for 1 h; the strands have 90 letters, of which the middle is given. Values are log2 of uncut reads against the no-enzyme pool; the lower, the more was cut; hits are not called. The scaling is to total reads; values above 0 arise when much of the pool is cut.
tested on: T1, Rep nickase domain of tomato golden mosaic virus; assay: uncleaved DNA left, log2 of reads against the no-enzyme library (log2 ratio); higher = less cleavage (more negative = more Rep cleavage of the k-mer); sequences stand for … in CTCGTCCG…ACCGGAGA
T1 sequence (Rep 1-124, printed without the tag): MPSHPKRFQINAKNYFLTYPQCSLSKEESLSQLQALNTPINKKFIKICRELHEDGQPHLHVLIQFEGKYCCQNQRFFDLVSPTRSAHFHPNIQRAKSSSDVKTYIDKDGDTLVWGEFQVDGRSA
Protocol: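 A pool of 90-nt single-stranded DNAs with seven random bases just before the constant AC of the nick site (name = the seven bases) was cut by 3 µM recombinant His6-SUMO-tagged Rep nickase domain (300 nM DNA, 50 mM HEPES pH 8.0, 50 mM NaCl, 1 mM MnCl2, 1 h, 37 °C, three replicates). Uncut DNA was amplified and sequenced.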

Sequence	uncleaved DNA left (log2)
ATTAGCC	0.0362
GTGGTCA	0.16
CCCACGG	0.0854
GACCCAA	0.104
AGTCGTC	0.00978
TAGTACA	-0.175
TGATCAC	-0.0295
TCCGATA	-0.0377
TTTCCTC	-0.0847
GGGAAAC	0.033
AGAGATA	0.0607
CTTCGAC	0.0363
TCCCCAC	0.0293
TACCAAC	-0.0742
ATAGTCG	-0.0896
CAGTTTG	0.00676
ATTTTAT	-0.0442
TGCGTCA	-0.0847
TTCCCCT	-0.145
TGATACC	-0.222

Sequence	uncleaved DNA left (log2)
CCGAAAC	0.0462
TCGTTCA	0.0447
GATGAGC	-0.245
AGAACAT	0.064
ACGCACA	0.0372
TGGTAAA	0.0659
ATTTTAC	0.00176
CAACCAG	-0.157
CCTGCCC	-0.283
CTAATTT	0.194
TAAAAGG	0.139
AGCTGAT	0.114
GTCCTTG	0.123
CAAGCTC	-0.089
AGACGGG	0.088
ACTTGAA	-0.0849
CCTAGTC	-0.0927
CCGTATT	-1.86
TTAGTGT	0.0402
CCTGGGC	0.0703
